Measurements taken from PMC12040169 (PLOS Biology, 2025).
Some of the results follow.

The compounds below were run on T1, C. trachomatis L2/434/Bu expressing GFP (CTL2-GFP). Conditions: total inclusion area; 28.5 h, 10 µM; inhibitor.
T1 construct: L2/434/Bu GFP intracellular growth in HeLa cells
Set-up: species or system HeLa; C. trachomatis total inclusion area by high-content imaging, normalised to DMSO
Description: In this process, we also complemented the assay described above with an imaging-based readout (Fig 1B). After measurements of bulk GFP and resorufin fluorescence, cells were fixed, stained with the DNA dye Hoechst, and imaged at a high-content imaging platform to detect chlamydial inclusions (GFP) and host cell nuclei (Hoechst). The total area and number of inclusions in individual wells and the number of nuclei then served as additional proxies for chlamydial growth and host cell viability. […] MICs were calculated as described above.

| SMILES | % of control remaining |
| --- | --- |
| Cc1n[nH]c(C)c1Sc1ccccc1/N=C/c1ccc([N+](=O)[O-])cc1 [CBK262045] | 102.473 |
| Oc1cccc(OCCOc2nc3cc(Cl)c(Cl)cc3nc2N2CCCC2)c1 [CBK115778] | 90.6394 |
| Cc1nc2c(c(=O)[nH]1)CCN(C(=O)c1cc(C3CC3)oc1C)C2 [CBK283753] | 110.799 |
| CCN1CCN(C(=O)CN(C)S(=O)(=O)c2ccc(OC)c(C)c2)CC1 [CBK268880] | 65.743 |
| CCOc1ccc(-c2c3c(c(-c4ccccc4)n2-c2ccc(N)cc2)C(=O)c2ccccc2C3=O)cc1 [CBK262685] | 73.9115 |
| CCc1nn(CC(=O)NC2CCCC2)c(=O)c2cc3sccc3n12 [CBK284077] | 91.1833 |
| Cc1cc(-c2nnc(NCc3ccnn3C)o2)c(C)o1 [CBK306446] | 26.1251 |
| CC(=O)c1ccc(N2CCN(S(=O)(=O)c3ccc(O)c(C(=O)O)c3)CC2)cc1 [CBK296961] | 95.7657 |
| N=c1n(CC(=O)c2ccc(-c3ccccc3)cc2)c2ccccc2n1Cc1ccccc1 [CBK262128B] | 78.4798 |
| CCc1cc(C(=O)NC(CCn2ccnc2)c2ccccc2)cc(=O)[nH]1 (stereo not drawn) [CBK306679] | 61.7671 |
| O=C(CSc1nc2ccccc2nc1N1CCCC1)N1CCN(c2ccccc2)CC1 [CBK293977] | 118.294 |
| Cn1cc(CN2CCOC(c3nc(C(C)(C)C)cs3)C2)nn1 (stereo not drawn) [CBK304783] | 93.0218 |
| Cc1nc(C)n(CC2CCCN(Cc3nc4ccccc4o3)C2)n1 (stereo not drawn) [CBK305828] | 57.0744 |
| Cc1cc(C(=O)Nc2nncs2)c2ccc(F)cc2n1 [CBK297738] | 92.7688 |
| Cc1cc(C)n(C(C)CNC(=O)C(C)n2ccnc2)n1 (stereo not drawn) [CBK282049] | 98.2788 |
| COc1ccc(NC(=O)CS(=O)(=O)Cc2ccccc2)c([N+](=O)[O-])c1 [CBK266748] | 107.215 |
| O=C(c1cscn1)N1CCC(Cc2ccccc2)CC1 [CBK200188] | 59.3606 |
| O=C(CN1CCCC1c1ccc(Nc2ccc(F)cn2)cn1)Nc1ccc(F)cc1 (stereo not drawn) [CBK285941] | 109.403 |
| O=C(NC1CCCC1)c1ccc2ncccc2c1 [CBK200118] | 93.7661 |
| C=C(C)CN1CCN(C(=O)CSc2nccc3ccccc23)CC1 [CBK282712] | 107.333 |
| CN1C[C@@H](NS(=O)(=O)c2ccc(C#N)cc2)C[C@H]1c1nc(-c2ccncc2)no1 [CBK288871] | 108.907 |

| SMILES | % of control remaining |
| --- | --- |
| CN1CCN(C(=O)c2ccc3nc(-c4ccccc4)c(-c4ccccc4)nc3c2)CC1 [CBK267257] | 85.542 |
| COc1ccccc1C1(CCNCc2ccc3c(c2)OCO3)CCOC(C)(C)C1 (stereo not drawn) [CBK265599G] | 72.8205 |
| COc1ccc(CN2C(=O)CC(C(=O)O)S/C2=N\c2ccc(Cl)cc2)cc1 (stereo not drawn) [CBK287259] | 66.1176 |
| CC(CCN(C)CCN(C)C)c1ccccc1 (stereo not drawn) [CBK261871] | 99.0144 |
| CCN1CCCCC1CNC(=O)Cn1nc(C)c(C)c1C (stereo not drawn) [CBK282208] | 99.9986 |
| C(=N\n1cnnc1)/c1ccccc1OCc1cccc2ccccc12 [CBK263864] | 99.1223 |
| COc1cc(-c2ccc(/N=C/c3ccccc3O)c(OC)c2)ccc1/N=C/c1ccccc1O [CBK261089] | 89.869 |
| Cc1cccc(NC(=O)NCc2ccccn2)c1 [CBK269422] | 84.9285 |
| O=C(CN1C(=O)c2ccccc2C1=O)NCc1ccc(C(=O)O)cc1 [CBK262795] | 95.323 |
| O=S(=O)(CCc1ccccc1)N1CCCn2nc(-c3ccncc3)cc2C1 [CBK288608] | 100.114 |
| Cn1cc(Cl)c(C2CCCCCN2C(=O)c2ccco2)n1 (stereo not drawn) [CBK285105] | 116.212 |
| CCc1ccc(CNC(=O)Cn2nnc(-c3ccc(CNCCc4ccc(OC)c(OC)c4)cc3)n2)cc1 [CBK155008T] | 24.7638 |
| Cc1nc(C)c(C(=O)N2CCC(c3cc4cnccc4[nH]3)CC2)s1 [CBK283432] | 47.2049 |
| Cc1oc2nc(SCC(=O)NCc3cccnc3)nc(N)c2c1C [CBK266178] | 97.5525 |
| O=C(c1cnn(-c2ccccc2)c1)N1CCc2[nH]c3ccccc3c2C1 [CBK281853] | 118.207 |
| CCCN(CC(=O)NCc1ccco1)Cc1nnc(-c2ccco2)o1 [CBK305302] | 19.3894 |
| OCCN1CCN(Cc2cc(Br)cs2)CC1 [CBK261758] | 111.622 |
| Cc1nccn1CCCNC(=O)c1cccc(N2CCCCC2)c1 [CBK281646] | 85.9558 |
| CCn1c(Cc2ccccc2)nnc1SCC(=O)Nc1cc(Cl)ccc1O [CBK268689] | 87.3267 |
| CCOC(=O)CN1CCCN(c2ccnc(OC3CCCCC3)n2)CC1 [CBK083864] | 72.624 |
| CCCn1cnnc1C(C)NC(=O)N(C)Cc1nc2cccc(C)c2[nH]1 (stereo not drawn) [CBK307551] | 37.3417 |

| SMILES | % of control remaining |
| --- | --- |
| Cc1ccc(NCC2CCN(c3cc(=O)n4oc(C)cc4n3)C2)nc1 (stereo not drawn) [CBK305827] | 90.4303 |
| c1ccc(Oc2nc3ccccc3n3cnnc23)cc1 [CBK287945] | 107.759 |
| CCOC(=O)c1cnc2ccc(OC)cc2c1NCCN1CCOCC1 [CBK304199] | 29.6916 |
| O=C1Nc2ccc(Br)cc2C(=O)N2CCNC[C@H]12 [CBK289583] | 104.128 |
| CC1=C[C@@H](CO)[C@H](C(C)C)C[C@H]1Cc1nnc(Cc2c[nH]c3ccccc23)o1 [CBK289223] | 106.464 |
| Fc1cccc(-c2nccnc2NCCc2ccncc2)c1 [CBK036763] | 114.846 |
| NC1=C2NN(c3ccc(Cl)cc3Cl)N=C2N(c2ccccc2)N1 [CBK107773] | 65.2927 |
| Fc1cc(Br)ccc1COc1cccnc1Cl [CBK161281] | 58.679 |
| CCC1CCCCN1S(=O)(=O)c1cccc2c(S(=O)(=O)N3CCCCC3CC)cccc12 (stereo not drawn) [CBK262073] | 98.9361 |
| CC(C)[C@H](NC(=O)c1cc2cc(Cl)ccc2n1C)C(=O)N1CCC(C(=O)O)CC1 [CBK286771] | 83.0673 |
| O=C(O)c1ccc2c(c1)c(C(C(=O)O)N1CCCC1)cn2Cc1ccccc1 (stereo not drawn) [CBK286633] | 78.7717 |
| COc1ccc(CN2CCC(N3CCN(c4ccccc4F)CC3)CC2)cc1OCc1ccccc1 [CBK264720G] | 99.9622 |
| O=C1C[C@H]2[C@H](CC3(SCCS3)[C@@H]2CO)O1 [CBK006615] | 72.7376 |
| O=C(OCc1csc2ccc(Cl)cc12)N1CCOCC1 [CBK200164] | 111.878 |
| CCCCNC(=O)CCn1c(=O)[nH]c2ccccc2c1=O [CBK287824] | 85.9196 |
| Cc1nn(C)c(C)c1-c1ccc(=O)n(Cc2ccc(F)cc2)n1 [CBK282258] | 73.4965 |
| COc1ccc(C(C)C)cc1-c1nccnc1NCc1ccco1 [CBK036672] | 145.205 |
| Cc1cc(C(=O)O)ccc1-c1ccc(/C=N/n2cnnc2)o1 [CBK264713] | 104.665 |
| COc1cccc2c(O)cnnc12 [CBK026139] | 42.2453 |
| CC1CN(S(=O)(=O)c2ccc3c(c2)C(=O)c2cc(S(=O)(=O)N4CC(C)OC(C)C4)ccc2-3)CC(C)O1 (stereo not drawn) [CBK263355] | 113.087 |
| O=C(O)COCC(=O)N[C@H]1CCN2C(=O)c3ccc(Cl)cc3NC(=O)[C@H]12 [CBK289342] | 115.578 |

| SMILES | % of control remaining |
| --- | --- |
| Cc1noc(COc2ccc(OCc3nc(C)no3)cc2)n1 [CBK261364] | 109.457 |
| Cc1ccc(OCc2cccc3nsnc23)cc1[N+](=O)[O-] [CBK266063] | 87.7606 |
| CC(=O)Nc1ccc(S(=O)(=O)Nc2ccc(-c3csc(C)n3)cc2)cc1 [CBK266261] | 113.946 |
| Cc1oc(-c2ccccc2)cc1C(=O)Nc1ccccc1N1CCCNCC1 [CBK038940T] | 76.0373 |
| c1cncc(C(N2CCOCC2)N2CCOCC2)c1 [CBK260999] | 99.8376 |
| FC(F)(F)c1nc2ccccc2nc1Sc1ccccn1 [CBK093781] | 88.4807 |
| Cn1ccnc1C1(O)CCN(C(=O)c2ccc(F)cc2)CC1 [CBK283541] | 106.483 |
| CCc1ccc(OCc2nnc(SCC(=O)NCCCC(=O)O)n2CC(C)C)cc1 [CBK295321] | 108.934 |
| CCCCc1ccc(-c2nc(NC(=O)NCC)cc3cccnc23)cc1 [CBK081231] | 51.5181 |
| Cc1ccc(CNC(=O)COc2ccc(S(=O)(=O)N3CCOCC3)cc2)cc1 [CBK269816] | 97.131 |
| Cc1ccc(C2=CCN(CC(=O)NCc3ccco3)CC2)o1 [CBK283632] | 94.3124 |
| O=C(O)c1cccc(Cn2c(C3CC3)n[nH]c2=S)c1 [CBK288401] | 61.6963 |
| CCOC(=O)CCSc1c(CC)c(C)nc2ccccc12 [CBK153457T] | 91.4525 |
| CCn1cc(Cl)c(C(=O)NC2CCN(c3nc(C)cc(=O)[nH]3)CC2)n1 [CBK304614] | 77.5565 |
| Cc1cc2nc3c(nc2cc1C)CCNCC3 [CBK012302] | 94.5279 |
| Cc1ccc(S(=O)(=O)Nc2ccccc2CNc2ccccn2)cc1 [CBK264198] | 92.417 |
| CCC1CCCCN1C(=O)c1cc2ccccc2s1 (stereo not drawn) [CBK074211] | 100.708 |
| CC(=O)NCC(=O)Nc1cnc(-c2cccc(C(F)(F)F)c2)c(-c2cccnc2)n1 [CBK036809] | 83.7834 |
